In all, about 310,000 compounds went through this assay and about 2,200 (0.71%) showed an effect of 50% or more. Effects have a minus sign here. This is one part of the list.

The record followed here is publication PMC4336329 (PLoS ONE, 2015).

In the experiment the target is human ether-à-go-go-related gene (hERG) potassium channel (human, UniProt Q12809). In words: primary screen, population patch clamp on CHO cells stably expressing hERG.
Sequence of human ether-à-go-go-related gene (hERG) potassium channel (Q12809 whole entry, looked up): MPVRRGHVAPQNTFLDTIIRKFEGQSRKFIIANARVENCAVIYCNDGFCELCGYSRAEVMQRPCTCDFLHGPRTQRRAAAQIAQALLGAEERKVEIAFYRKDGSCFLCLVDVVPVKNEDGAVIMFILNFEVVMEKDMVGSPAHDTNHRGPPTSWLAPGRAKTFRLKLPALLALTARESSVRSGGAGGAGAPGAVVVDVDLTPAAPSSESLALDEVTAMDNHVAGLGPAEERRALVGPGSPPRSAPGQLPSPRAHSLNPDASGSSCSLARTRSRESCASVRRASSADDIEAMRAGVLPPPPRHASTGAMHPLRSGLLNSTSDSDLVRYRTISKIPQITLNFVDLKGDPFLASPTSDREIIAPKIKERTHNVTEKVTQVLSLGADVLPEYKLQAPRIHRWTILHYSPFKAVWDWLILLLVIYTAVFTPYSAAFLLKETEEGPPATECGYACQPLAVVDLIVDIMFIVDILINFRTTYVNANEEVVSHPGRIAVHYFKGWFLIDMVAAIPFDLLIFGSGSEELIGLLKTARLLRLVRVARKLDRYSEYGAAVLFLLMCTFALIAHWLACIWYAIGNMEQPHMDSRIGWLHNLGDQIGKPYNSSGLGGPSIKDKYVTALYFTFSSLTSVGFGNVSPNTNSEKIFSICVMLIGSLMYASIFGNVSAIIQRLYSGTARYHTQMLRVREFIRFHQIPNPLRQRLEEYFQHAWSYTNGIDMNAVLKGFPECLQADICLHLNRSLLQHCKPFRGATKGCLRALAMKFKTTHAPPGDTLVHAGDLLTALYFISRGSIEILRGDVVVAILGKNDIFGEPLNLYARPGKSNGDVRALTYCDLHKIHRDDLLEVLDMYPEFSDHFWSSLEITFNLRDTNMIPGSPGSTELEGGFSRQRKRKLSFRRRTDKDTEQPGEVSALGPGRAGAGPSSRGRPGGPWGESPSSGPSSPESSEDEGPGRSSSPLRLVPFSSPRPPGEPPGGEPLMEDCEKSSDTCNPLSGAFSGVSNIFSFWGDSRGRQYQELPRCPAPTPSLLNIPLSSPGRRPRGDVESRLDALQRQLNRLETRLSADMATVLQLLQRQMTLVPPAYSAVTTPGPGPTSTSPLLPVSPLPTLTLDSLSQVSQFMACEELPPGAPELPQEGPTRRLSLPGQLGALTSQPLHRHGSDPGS
As for `Cc1ccn2c(=O)nc(SCC(=O)Nc3ccc4c(c3)OCCO4)nc2c1`, the “hERG current change (%, negative = inhibition) at 1uM” value was -3.93%. With `Nc1nonc1-n1nnc(C(=O)N/N=C/c2ccccc2)c1CSc1ccccc1`, the “hERG current change (%, negative = inhibition) at 1uM” value came out at 11.7%. Consider `C/C(CC(=O)Nc1ccc(Cl)c(Cl)c1)=N\NC(=O)Cc1ccccc1`, for which the “hERG current change (%, negative = inhibition) at 1uM” value is listed as 4.75%. The result for `COc1ccc(-n2nc3c(c2NC(=O)C2CC(=O)N(c4ccccc4)C2)CS(=O)(=O)C3)cc1` (stereo not shown) reads 9.67%.

Regarding `NCCCC[C@@H]1NC(=O)[C@H](CCC(=O)O)NC(=O)c2cc([N+](=O)[O-])cc(I)c2OCC[C@@H](C(N)=O)NC1=O`, the “hERG current change (%, negative = inhibition) at 1uM” value was determined as 8.25%. Then `CCOC(=O)C(C)Sc1nc2ccccc2c(=O)n1CC1CCCCC1` (stereo not shown), with -0.0096%; and `Cc1ccc(NCCC(=O)c2cccs2)cc1`, with 9.37%; and `Nc1nc(Nc2ccccc2)nc(NC2CCCCC2)c1[N+](=O)[O-]`, with 2.05%. With `Cl.N/C(=N\O)C1COc2ccccc2O1` (stereo not shown), the “hERG current change (%, negative = inhibition) at 1uM” value came to 18%. The result for `COc1cccc2cc(C(=O)NCc3ccccn3)c(=O)oc12` reads 6.54%; that for `CCC(CC)c1nn2c(N)c(/C=C3\C=Nc4ccccc43)c(=O)nc2s1`, 0.425%. Then `CCN(CC(=O)NC(=O)NC1CCCCC1)Cc1ccccc1`, with 1.4%; and `CCCCNC(=O)CCn1c(=O)c2ccccc2n(Cc2ccc(F)cc2)c1=O`, with 0.583%.

`Cc1ccc(C(=O)N(C)CC(=O)Nc2ccc(Cl)c(C(F)(F)F)c2)cc1S(=O)(=O)N1CCCCC1`: the “hERG current change (%, negative = inhibition) at 1uM” value is reported as 11.8%. The result for `O=C(Nc1ccc(Oc2cccnc2)cc1)C1CCN(Cc2cc(Cl)ccc2O)CC1` reads -1.38%. The result for `CC1(c2ccc(Cl)cc2Cl)NC(=O)N(CC(=O)NC2CCCCC2)C1=O` (stereo not shown) reads 9.22%. The result for `Cc1[nH]c2ccc(C(=O)N3CCN(C)CC3)cc2c1C` reads 26.9%. Regarding `CCOC(=O)N1CCN(c2ccc(C(=O)CC)cc2F)CC1`, the “hERG current change (%, negative = inhibition) at 1uM” value is on record as 12.4%. On to `CCN(CC)CCCNC(=S)N(Cc1cccs1)Cc1cc2cc3c(cc2[nH]c1=O)OCCO3`, for which the “hERG current change (%, negative = inhibition) at 1uM” value is listed as 7.98%. The result for `COC(=O)c1c(N2C(=O)[C@H]3[C@@H](C2=O)[C@]2(C(=O)Nc4ccc(C)cc42)N2CCC[C@@H]32)sc(C)c1C` reads 8.47%; that for `CC(=O)c1cccc(NC(=O)C2CC(=O)N(c3ccc4c(c3)OCCO4)C2)c1` (stereo not shown), 6.81%; that for `CCc1ccc(-c2nc(CS(=O)CC(=O)NC3CCCCCC3)c(C)o2)cc1` (stereo not shown), 16.5%.

Turning to `Cc1cc(NC(=O)CSc2nnc(C)n2-c2ccccc2C)no1`, the “hERG current change (%, negative = inhibition) at 1uM” value stood at 11.4%. As to `Cc1nc(C(C)NC(=O)CCc2nnc(-c3ccsc3)o2)cs1` (stereo not shown), the “hERG current change (%, negative = inhibition) at 1uM” value was determined as 7.2%. Then `Nc1ccc2c(c1)COC2=O`, with 9.85%; and `CC(C)(Oc1ccc(Cl)cc1)C(=O)NC1=NN(c2ccccc2)C(=O)C1`, with -3.57%; and `Cc1ccc(S(=O)(=O)Nc2ccc(Cl)cc2C(=O)c2ccccc2)cc1`, with 12.8%.

On to `O=C1NC(=O)/C(=C\c2ccccc2OCc2cccc([N+](=O)[O-])c2)N1`, for which the “hERG current change (%, negative = inhibition) at 1uM” value came to 7.83%. Consider `Cc1ccc(S(=O)(=O)/C(=C\N(C)C)c2cnc(Cl)s2)cc1`, for which the “hERG current change (%, negative = inhibition) at 1uM” value worked out at 9.2%. Then `O=C1ON=C(c2ccc(Cl)c([N+](=O)[O-])c2)/C1=C/c1cccc([N+](=O)[O-])c1O`, with 16.5%; and `O=C(/C=C/c1ccco1)N(Cc1ccc(Cl)cc1)C1CCS(=O)(=O)C1` (stereo not shown), with -19.2%. The result for `FC(F)(F)c1ccc(-c2nnc(-c3ccccn3)c(-c3ccccn3)n2)nc1` reads 11.6%; that for `COc1ccc(/C=C(\NC(=O)c2ccccc2)C(=O)NCCN2CCOCC2)cc1`, -3.04%; that for `CC(C)(C)C(=O)Nc1ccc(S(=O)(=O)N2CCCC2)cc1`, 6.72%.

Regarding `CC(C)OC(=O)/C(=C\c1cccc2ccccc12)NC(=O)c1ccccc1`, the “hERG current change (%, negative = inhibition) at 1uM” value worked out at 2.63%. In the case of `CCOC(=O)C1CCN(CC(O)COCc2ccc(Cl)cc2)CC1.Cl` (stereo not shown), the “hERG current change (%, negative = inhibition) at 1uM” value is recorded as -58.6%. Then `O=C(N/C(=C/c1ccc(F)cc1)C(=O)N1CCCCC1)c1ccco1`, with 7.27%; and `COc1ccccc1OCc1cc(C(=O)N2CCCC(OCc3cccnc3)C2)no1` (stereo not shown), with -1.83%.

As to `COCCN(C(=O)COC(=O)/C=C/c1ccc(OC)c(OC)c1)c1c(N)n(Cc2ccccc2)c(=O)[nH]c1=O`, the “hERG current change (%, negative = inhibition) at 1uM” value is reported as 4.93%. Then `CC(=O)c1cccc(S(=O)(=O)N2CCC(C(=O)Nc3cccc(C(=O)NC4CC4)c3)CC2)c1`, with 9.97%; and `CN(C)c1ccc(NC(=O)Nc2ccc3c(c2)nnn3C)cc1`, with 5.98%. For the compound `Cc1ccc(-n2nnc3c(=O)n(CC(=O)NCc4ccco4)cnc32)cc1`, the “hERG current change (%, negative = inhibition) at 1uM” value is recorded as 1.42%. Then `COc1ccc(NC(=O)c2csc3c2CCCCC3)c(OC)c1`, with -0.286%; and `O=C(NCC1CCCO1)Nc1cc(Cl)cc(Cl)c1` (stereo not shown), with 3.82%; and `Cc1ccc(NC(=S)N/N=C/c2ccc([N+](=O)[O-])s2)cc1`, with 2.76%. The result for `COc1ccc2c(c1O)C13CCN(C)C(C2)C1CCC(=O)C3` (stereo not shown) reads 3.58%; that for `O=C(NNC(=O)C1CCN(c2ncccn2)CC1)c1ccc(Cl)cc1`, 11.7%; that for `O=C(NC1CCCCCC1)c1c(F)c(F)c(F)c(F)c1F`, 6.52%. The result for `NC(=NC(=O)c1ccc(OCC(F)(F)F)nc1)c1ccccc1` reads 3.03%. Consider `C/C(=N\Nc1ncc(Cl)cc1Cl)c1ccc(N2CCOCC2)cc1`, for which the “hERG current change (%, negative = inhibition) at 1uM” value came out at 2.74%. The result for `COc1cccc(/C=C2\SC(=S)N(CCCC(=O)Nc3cc(C)on3)C2=O)c1` reads 15.6%; that for `O=C(NC(=S)NCc1cccnc1)c1cccc2ccccc12`, 14.3%. The result for `CCc1ccc(CNC(=O)C2CCC(=O)N2C2CCCCC2)cc1` (stereo not shown) reads -12.5%.

For the compound `O=S(=O)(c1cc(-c2nnc(-c3ccc(Br)cc3)o2)ccc1Br)N1CCCCCC1`, the “hERG current change (%, negative = inhibition) at 1uM” value is recorded as 6.17%. Then `COc1ccccc1Oc1c(C)oc2c(CN3CCN(C)CC3)c(O)ccc2c1=O`, with 3.11%; and `O=C(O)CNC(=S)N(Cc1ccccc1)Cc1ccccc1F`, with 18%. Then `O=C(NCc1ccc(Cl)cc1)c1ccc(-n2cccn2)nc1`, with 17.2%; and `Cl.NCCc1nnc(SCc2ccccc2)o1`, with 13.8%. The result for `Cc1ccc(/C=N/NC(=O)c2cccc3ccccc23)o1` reads 9.89%; that for `CC(C)(CO)NCc1ccccc1OCC(=O)Nc1ccccc1`, -3.77%; that for `C=C(c1ccccc1)P(=O)(O)O`, 18%. Turning to `O=C(N/N=C\c1cccnc1)c1cc(-c2ccccc2)nc2c(Cl)cccc12`, the “hERG current change (%, negative = inhibition) at 1uM” value amounted to 13.3%. Regarding `CCN(c1cccc(C(F)(F)F)c1)S(=O)(=O)c1ccc2c(c1)CCN2C(=O)C1CC1`, the “hERG current change (%, negative = inhibition) at 1uM” value is 2.06%. Then `CCOC(=O)C(C(=O)OCC)C1N=C(N)N=C2Oc3ccccc3N21` (stereo not shown), with 20.6%; and `O=C(Cc1ccsc1)N1CCN(S(=O)(=O)c2ccccc2F)CC1`, with -5.39%; and `NS(=O)(=O)c1ccc(F)c(C(=O)O)c1`, with 12.5%. For the compound `Cc1sc(N)nc1C12CC3CC(CC(C3)C1)C2`, the “hERG current change (%, negative = inhibition) at 1uM” value is on record as 15.3%. For `CN(C)c1ccc(/C(=N\O)C(F)(F)F)cc1`, the “hERG current change (%, negative = inhibition) at 1uM” value amounted to 23.6%. Then `COc1ccc(NC(=O)CCN2CCOCC2)c(OC)c1`, with 2.36%.

In the case of `Cc1cc(O)c(C=Nc2cccc(Cl)c2)c(=O)o1`, the “hERG current change (%, negative = inhibition) at 1uM” value worked out at 3.75%. The result for `O=C1CC(c2ccccc2Cl)c2c(sc3c(=O)[nH]c(CCl)nc23)N1` (stereo not shown) reads 8.68%; that for `Cc1ccc(N2C(=O)C(Cc3ccc(O)cc3)NC2=S)cc1C` (stereo not shown), 2%; that for `N/C(=N\OC(=O)c1ccccc1)c1ccn[nH]1`, 6.14%. As for `COc1ccc(CC(=O)Nc2ccc3nc(SC)sc3c2)cc1OC`, the “hERG current change (%, negative = inhibition) at 1uM” value amounted to 14.4%. In the case of `CC(C)c1ccc(OCC(=O)N(c2ccccn2)C2CCCCC2)cc1`, the “hERG current change (%, negative = inhibition) at 1uM” value is listed as 5.22%.

As to `CCOC(=O)C1(Cc2cccc(OC)c2)CCN(C2CCOCC2)CC1`, the “hERG current change (%, negative = inhibition) at 1uM” value is -16.3%. The result for `Cc1ccsc1C1Nc2ccccc2C(=O)N1O` (stereo not shown) reads 6.02%; that for `Nc1ccc(Cc2nc3cc4ccccc4cc3[nH]2)cc1`, 6.8%. The result for `Cc1cc2cc(CN(Cc3ccco3)S(=O)(=O)c3c(C)ccc4nsnc34)c(=O)[nH]c2cc1C` reads 5.26%. Then `COc1ccc(NS(=O)(=O)c2cccc(C(=O)N/N=C(\C)c3ccc(-n4ccnc4)cc3)c2)cc1`, with 12.8%; and `CCOC(=O)N1CCN(C(=O)CSCC(=O)Nc2nc(-c3ccccc3)cs2)CC1`, with -15.6%; and `Cc1cccc([C@@H]2[C@@H]3C(=O)N(Cc4ccccc4)C(=O)[C@@H]3[C@]3(C)C(=O)N(c4cccc(F)c4)C(=O)N23)c1`, with 11.5%. For the compound `COc1ccccc1C(=O)Nc1nnc(-c2ccco2)s1`, the “hERG current change (%, negative = inhibition) at 1uM” value is on record as 13.9%. Then `CCOC(=O)c1sc2nccc(N(C)C)c2c1N=CN(C)C`, with -1.29%. With `O=C(Nc1ccccc1C(=O)N1CCCCC1)c1cc(F)c(F)cc1Cl`, the “hERG current change (%, negative = inhibition) at 1uM” value worked out at 9.94%.

Turning to `C/C=C/C1=CC(=O)C[C@H](c2ccc(F)cc2)C1`, the “hERG current change (%, negative = inhibition) at 1uM” value is listed as -6.97%. The result for `Fc1cc(F)nc(NCc2ccccc2)n1` reads 3.57%. The result for `O=C(CSc1nnc(Cc2ccccc2)n1Cc1ccccc1)NCc1ccco1` reads -7.28%.
